Laboratory results from ChEMBL document CHEMBL4888484, “Replenishing the malaria drug discovery pipeline: Screening and hit evaluation of the MMV Hit Generation Library 1 (HGL1) against asexual blood stage Plasmodium falciparum ,using a nano luciferase reporter read-out” (2022).
In all, about 150,000 compounds went through this assay and about 540 (0.36%) showed an effect of 50% or more. This is one part of the list.

These molecules were tested on Plasmodium falciparum (assay: Primary screen in NF54 nanoGlo assay, in single point, at 2uM, 72h; a lower Z score goes with more inhibition). Conditions: timepoint 72 hour.
Format: functional, Erythrocyte
In the case of OCC1CCCN(C2CCCc3ccc(F)cc32)C1 (stereo not drawn), the “% Inhibition” value is reported as -6% and the Z score is reported as 1.12.
For C[C@H](NC(=O)c1ccc(Br)o1)c1ccc2c(c1)OCCO2, the “% Inhibition” value was -8% and the Z score was 1.36.
For CO[C@H]1COC[C@H]1NC(=O)NCc1c(C)nc2ccccn12, the “% Inhibition” value was 3% and the Z score was -0.5.
Cc1ccc(N(CC(=O)N[C@@H](C)CCc2ccccc2)S(=O)(=O)N(C)C)cc1 was tested, and the “% Inhibition” value was -17% and the Z score was 1.53.
In the case of O=C1c2cc(Nc3ccccc3)c3c4c(cc(Nc5ccccc5)c(c24)C(=O)N1c1ccccc1)C(=O)N(c1ccccc1)C3=O, the “% Inhibition” value is reported as 3% and the Z score is reported as -0.42.
In the case of O=C1CCCN1CC1CCCCN1C(=O)C1CC2C=CC1C2 (stereo not drawn), the “% Inhibition” value is reported as -5% and the Z score is reported as 0.43.
With N#Cc1ccc(C(=O)NCCc2noc(C3CCCC3)n2)cn1 the “% Inhibition” value was -7% and the Z score was 1.08.
For O=C(Nc1cnccn1)C1CC1c1ccc(F)c(F)c1 (stereo not drawn), the “% Inhibition” value was -3% and the Z score was 0.26.
With C[C@H]1C[C@@H](C(F)F)n2ncc(C(=O)NCC(=O)OC(C)(C)C)c2N1 the “% Inhibition” value was -10% and the Z score was 1.74.
For Cc1cc(C)nc(Cn2cc(C(N)=O)nn2)c1, the “% Inhibition” value was 5% and the Z score was -0.6.
Cc1ccc(-c2nc3n(CC(=O)Nc4ccc(N(C)C)cc4)c4c(c(=O)n3n2)CCC4)cc1 was tested, and the “% Inhibition” value was 0% and the Z score was -0.04.
In the case of CC(C)c1cc(C(=O)N[C@H]2CCc3nccn3C2)on1, the “% Inhibition” value is reported as 1% and the Z score is reported as -0.18.
With CCC(C)[C@H](NC(=O)COc1ccc(C(=O)COc2ccccc2)c(O)c1)C(=O)O (stereo partly drawn) the “% Inhibition” value was -14% and the Z score was 1.86.
For CCn1cc(S(=O)(=O)Nc2cccc3[nH]ncc23)cn1, the “% Inhibition” value was -16% and the Z score was 1.43.
In the case of O=C1CC2CCC(CN1)N2CC(O)CC1CCCC1 (stereo not drawn), the “% Inhibition” value is reported as -3% and the Z score is reported as 0.26.
With Cc1ccsc1C(=O)NCc1ccc(-c2nc(C3CC3)no2)s1 the “% Inhibition” value was -4% and the Z score was 0.77.
With Cc1nnnn1-c1ccc(Oc2ccccc2Cl)c(Cl)c1 the “% Inhibition” value was -7% and the Z score was 0.67.
For CC(CCc1cccc(F)c1)N1CCS(=O)(=O)C(C)C1 (stereo not drawn), the “% Inhibition” value was -2% and the Z score was 0.28.
With O=C(O)c1cccc(-n2nc([C@H]3CCOC3)nc2Cc2c(F)ccc(F)c2F)c1 the “% Inhibition” value was -2% and the Z score was 0.42.
For CC(C)(C)c1nsc(N[C@H]2CCC[C@H]2C(=O)O)n1, the “% Inhibition” value was -6% and the Z score was 0.9.
For COC(=O)N1CC[C@H](NC(=O)c2cc(-c3cccc(Cl)c3)[nH]n2)C1, the “% Inhibition” value was 8% and the Z score was -1.24.
In the case of CN(C(=O)Cn1c(=O)n(C)c(=O)c2ccccc21)c1cccc(Cl)c1, the “% Inhibition” value is reported as 1% and the Z score is reported as -0.23.
With Cc1n[nH]cc1CNC(=O)N1Cc2ccccc2C[C@@H]1C the “% Inhibition” value was 2% and the Z score was -0.19.
In the case of CC(C)(C)c1noc(-c2ccnc(-n3cnc(C(=O)NCc4ccc(F)cc4)c3)c2)n1, the “% Inhibition” value is reported as 33% and the Z score is reported as -3.74.
For CCOC(=O)N1CCN(C(=O)c2ccc3c(ccn3C)c2)CC1, the “% Inhibition” value was -3% and the Z score was 0.44.
For CN(C)C(=O)c1ccc(S(=O)(=O)N(Cc2ccco2)C2CC2)o1, the “% Inhibition” value was 6% and the Z score was -0.74.
With O=C1COc2ccc(S(=O)(=O)NC3CCCCCC3)cc2N1Cc1noc(C2CC2)n1 the “% Inhibition” value was -8% and the Z score was 1.03.
In the case of Cc1nc(-c2cccc(C(=O)Nc3ccc(N4CCC(CN(C)C)CC4)cc3)c2)n[nH]1, the “% Inhibition” value is reported as -7% and the Z score is reported as 1.27.
In the case of COC(CNC(=O)N1CCCC2CC1C2(C)C)(OC)c1ccccn1 (stereo not drawn), the “% Inhibition” value is reported as -12% and the Z score is reported as 2.01.
Nc1c(C(=O)N2CCCC2)nsc1C(=O)N1CCN(c2ccc(F)cc2)CC1 was tested, and the “% Inhibition” value was -20% and the Z score was 2.3.
In the case of CC(C)[C@H](CCO)NC(=O)C1CCC(N2CCOCC2)CC1 (stereo partly drawn), the “% Inhibition” value is reported as -10% and the Z score is reported as 1.84.
COCCN(CCC(=O)OC)C(=O)c1ccc(F)c(C)c1 was tested, and the “% Inhibition” value was 1% and the Z score was -0.1.
Cc1occc1C(=O)Nc1cccnc1-n1cccn1 was tested, and the “% Inhibition” value was -5% and the Z score was 0.71.
In the case of Cc1ccccc1OCC(=O)N1C[C@@H](CN2CCCCC2)[C@@H](CO)C1, the “% Inhibition” value is reported as -9% and the Z score is reported as 1.75.
Cc1ccc(NCCCNc2nc(C)nc(C)c2C)nc1 was tested, and the “% Inhibition” value was -9% and the Z score was 1.47.
In the case of COc1ccc(O)c(-c2ccc(-c3ccn[nH]3)s2)c1, the “% Inhibition” value is reported as -17% and the Z score is reported as 1.86.
For CCC(CNC(=O)C1CC2CCC1O2)Oc1cccc(F)c1 (stereo not drawn), the “% Inhibition” value was -13% and the Z score was 1.32.
CCC(C)(CC)c1noc(-c2cccnc2)n1 was tested, and the “% Inhibition” value was -5% and the Z score was 0.72.
For Cn1nc(C(=O)NC2CCN(Cc3ccccc3)CC2)c2ccccc2c1=O, the “% Inhibition” value was 34% and the Z score was -3.81.
With C[C@H]1C(=O)N(C)C[C@H](CO)N1C(=O)Cc1cccc(Cl)c1 the “% Inhibition” value was -19% and the Z score was 2.31.
In the case of Cc1c(Cl)c(C(F)(F)F)nn1[C@@H](C)C(=O)NC1CCN(C(C)C)CC1, the “% Inhibition” value is reported as 31% and the Z score is reported as -4.49.
With Cc1cc(NC(=O)c2ccccc2Cl)sc1C(=O)N1CCc2ccccc21 the “% Inhibition” value was -16% and the Z score was 2.48.
For CCc1cc(CNC(=O)N[C@@H](C)COCC(C)C)[nH]n1, the “% Inhibition” value was -32% and the Z score was 2.92.
In the case of Cn1cc(C2CC2C(=O)NS(=O)(=O)c2ccc(F)cc2)cn1 (stereo not drawn), the “% Inhibition” value is reported as -8% and the Z score is reported as 1.47.
With N#C[C@@]1(C(=O)N2CCOc3cc(Cl)c(Cl)cc32)CC12CCCC2 the “% Inhibition” value was 17% and the Z score was -2.16.
In the case of CC(C)CN1CCOc2ccccc2[C@@H]1C(=O)O, the “% Inhibition” value is reported as 2% and the Z score is reported as -0.4.
CO[C@H]1COC[C@@H]1NS(=O)(=O)c1cc(-c2cc(C(F)(F)F)on2)ccc1C was tested, and the “% Inhibition” value was 9% and the Z score was -1.77.
CN(Cc1ccc2c(c1)OCCO2)c1cccc(CC(=O)O)c1 was tested, and the “% Inhibition” value was -11% and the Z score was 1.1.
In the case of CCC(=O)Nc1ccc(C)cc1-c1nc2ccccc2n(Cc2ccccc2)c1=O, the “% Inhibition” value is reported as -4% and the Z score is reported as 0.84.
CC(C)[C@H](C)NC(=O)c1cc(-c2ccc(C3CCCCC3)cc2)on1 was tested, and the “% Inhibition” value was -4% and the Z score was 0.61.
With O=C(NCc1ccc(N2CCCC2)cc1)c1cc(F)c(O)c(Cl)c1 the “% Inhibition” value was 4% and the Z score was -0.47.
CCS(=O)(=O)CCN1C(=O)C2CC3CCCCC3N2C1=O (stereo not drawn) was tested, and the “% Inhibition” value was -7% and the Z score was 1.21.
CN(CC(N)=O)S(=O)(=O)c1ccc(C#N)cc1 was tested, and the “% Inhibition” value was 0% and the Z score was 0.07.
With CC(C)=CCO[C@H]1COCC[C@@H]1NC(=O)c1c(C)nc2ncccn12 the “% Inhibition” value was -6% and the Z score was 0.83.
For CCC[C@H]1CN(C(=O)CCc2c(C)nn(C)c2C)C[C@@H]1NS(C)(=O)=O, the “% Inhibition” value was -11% and the Z score was 2.26.
For Cc1cccc(NC(=O)c2nn[nH]c2NS(=O)(=O)c2ccccc2)c1, the “% Inhibition” value was -11% and the Z score was 1.52.
In the case of CCn1nc(C(=O)Nc2ccccc2)cc1-c1ccsc1, the “% Inhibition” value is reported as -3% and the Z score is reported as 0.62.
With CCc1nnsc1C(=O)NCc1ccco1 the “% Inhibition” value was -10% and the Z score was 1.61.
In the case of Cc1ccc(S(=O)(=O)Nc2cccc(Oc3ncccc3C(=O)NC(C)C)c2)cc1, the “% Inhibition” value is reported as -11% and the Z score is reported as 1.69.
With COc1cc(CN2CCN(C(=O)c3ccns3)CC2)cc(OC)c1 the “% Inhibition” value was -12% and the Z score was 1.35.
With CCN(CC)c1ccc(C(=O)Nc2ccc3c(c2)OCCCO3)c(O)c1 the “% Inhibition” value was 4% and the Z score was -0.58.
In the case of CC(C)(CNC(=O)N1CCN(c2nccs2)CC1)N1CCOCC1, the “% Inhibition” value is reported as -3% and the Z score is reported as 0.44.
In the case of Cc1ncsc1C(=O)N(CC1CCN(C2Cc3ccccc3C2)CC1)C[C@H]1CCCO1, the “% Inhibition” value is reported as -10% and the Z score is reported as 1.11.
COCCCN1C(=O)C2C(Cc3ccc(O)cc3)NC3(C(=O)Nc4ccccc43)C2C1=O (stereo not drawn) was tested, and the “% Inhibition” value was 4% and the Z score was -0.46.
In the case of CC[C@@H](C(=O)N(CC)c1cccc(C)c1)n1nc(-c2ccc(OC)cc2)c2c(C)onc2c1=O, the “% Inhibition” value is reported as 13% and the Z score is reported as -1.27.
For COc1ccc(C)c2sc(N(Cc3ccccc3)C(=O)c3ccn(C)n3)nc12, the “% Inhibition” value was -10% and the Z score was 1.73.
In the case of Cc1cc(NS(C)(=O)=O)cnc1N1CCCCC1, the “% Inhibition” value is reported as -6% and the Z score is reported as 0.87.
For Cc1ccc(-c2nc(C)c(C)c(N3CCN(S(=O)(=O)c4ccc5ccccc5c4)CC3)n2)cc1, the “% Inhibition” value was -11% and the Z score was 1.74.
In the case of CN(C)c1cccc(-c2nc([C@H]3CCOC3)nn2CC(F)(F)F)c1, the “% Inhibition” value is reported as -14% and the Z score is reported as 1.79.
With Cn1ccnc(NCc2nnc3n2CCCCC3)c1=O the “% Inhibition” value was 6% and the Z score was -0.77.
Cc1noc(C)c1S(=O)(=O)Nc1cccnc1-n1cccn1 was tested, and the “% Inhibition” value was 11% and the Z score was -1.24.
In the case of O=C(Nc1c(F)cccc1F)N1C[C@H]2CC[C@H]1C2, the “% Inhibition” value is reported as -11% and the Z score is reported as 2.18.
For COc1ccc(NC(=O)c2nnc([C@H]3CCCN(C(=O)Nc4ccc(F)c(Cl)c4)C3)s2)cc1, the “% Inhibition” value was -15% and the Z score was 2.26.
For COCCN(C)c1ccc(NCc2c[nH]nc2-c2cccnc2)nc1, the “% Inhibition” value was -7% and the Z score was 0.88.
In the case of CCN(CC)C(=O)COc1cc(NCc2nc(C)no2)ccc1OC, the “% Inhibition” value is reported as -12% and the Z score is reported as 1.67.
In the case of Cc1csc([C@@H](C#N)C(=O)c2cccc3cc[nH]c23)n1, the “% Inhibition” value is reported as -8% and the Z score is reported as 1.64.
For COc1ccc(NC(=O)c2cc(N3CCCCC3)c3cc(C)ccc3n2)cc1OC, the “% Inhibition” value was -8% and the Z score was 0.91.
For CS(=O)(=O)NCCCNC(=O)c1cncc(Br)c1, the “% Inhibition” value was -6% and the Z score was 1.
For CC(C)(F)c1nc(CS(=O)(=O)NC2CC2)no1, the “% Inhibition” value was 1% and the Z score was -0.28.
O=C1NCC2(CCN(C(=O)C[C@H]3CCOC3)CC2)O1 was tested, and the “% Inhibition” value was -15% and the Z score was 2.38.
With Cc1n[nH]c2c1CCCN2Cc1ncc(C(C)(C)C)o1 the “% Inhibition” value was -3% and the Z score was 0.41.
In the case of Cc1cc(N)nc(C)c1-c1ccc(C(=O)N[C@@H](C)Cn2cncn2)cc1, the “% Inhibition” value is reported as -13% and the Z score is reported as 1.32.
In the case of Cn1cc(CC2CN(c3ccc4nccnc4n3)C2)cn1, the “% Inhibition” value is reported as -9% and the Z score is reported as 0.98.
For C=CCN(C(=O)c1ccncc1)c1nc(-c2ccc(Cl)c(Cl)c2)cs1, the “% Inhibition” value was -2% and the Z score was 0.26.
